# Measurements taken from PubChem BioAssay AID434955 (Southern Research Specialized Biocontainment Screening …, 2010).
# The list shows a part of the results. The main result of the screen is listed elsewhere. These columns were measured beside it and carry no call. Compounds called inactive in the main read-out are mostly missing here.
# Assay: beta-lactam sensitization of Mtb H37Rv, H37Rv (AID 434955);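 further: growth measured after seven days incubation then overnight dye step; 0% = bacteria only wells and 100% = bacteria with antibiotic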
# Details: M. tuberculosis H37Rv growth with meropenem, percent inhibition; measured here: primary screen without meropenem; at 25 µM
row,SMILES,inhibition
1,Cn1c(=O)cc(OCC(=O)N2CCC3(CC2)OCCO3)c2ccccc21,-3.05%
2,O=C(Nc1ccncc1Cl)c1ccncc1,-12.7%
3,CN1CCN(CCCC(=O)c2ccc(F)cc2)CC1,-6.04%
4,COCC1CCN(C(=O)c2ccc3oc(Cc4ccccc4)nc3c2)C1 (stereo not drawn),8.29%
5,Cc1c(C=O)c(C=O)c(C)n1Cc1ccccc1,41.3%
6,Cn1nnnc1Sc1ncnc2scc(-c3ccc[nH]3)c12,88.8%
7,O=C(Cc1cccc2ccccc12)N/N=C/c1ccc(OC(=O)/C=C/c2ccco2)cc1,9.56%
8,COCCCNC(=O)Cn1cc2c(n1)CCC(C)C2 (stereo not drawn),-3.69%
9,COc1cc(C(=O)NC2CCCCC2)ccc1OCc1ccc(Cl)cc1Cl,1.14%
10,CCCC(O)(c1ccc(Cl)cc1)C(CN1CCOCC1)c1ccc(Cl)cc1 (stereo not drawn),34.7%
11,N#Cc1c(-c2ccc(F)cc2)cc(-c2cccnc2)nc1N,7.5%
12,Cc1ccc2c(c1)N(CC(=O)N1CCCC1)C(=O)c1cccnc1O2,2.62%
13,O=C(CSc1nnc(NC(=O)C2CC(=O)N(c3ccc(F)cc3)C2)s1)NCc1ccco1 (stereo not drawn),2.41%
14,COc1ccc(C(=O)NCCNC(C)=O)cc1S(=O)(=O)NCc1ccc(Cl)cc1,-18.4%
15,CCOc1ccc(S(=O)(=O)N2CCCC(C(=O)N3CCOCC3)C2)cc1 (stereo not drawn),0.73%
16,COc1ccc(C(CNC(=O)c2cc(=O)[nH]c3ccccc23)N2CCCC2)cc1 (stereo not drawn),0.24%
17,COc1ccc(N(CC(=O)N/N=C/c2cccc(OC)c2OC)S(=O)(=O)c2ccccc2)cc1,-5.39%
18,CCc1c(C)nc2ncnn2c1N1CCC(C(=O)NCc2ccc3c(c2)OCO3)CC1,4.56%
19,COc1ccccc1NC(=O)c1cnc(Nc2ccccc2OC)c2ccccc12,8.27%
20,COc1ccc(-n2c(O)c(C=NCCN3CCN(C(C)=O)CC3)c(=O)[nH]c2=S)cc1,-0.26%
21,CC(C)CNc1c2c(nc3ccccc13)CCC2,3.61%
22,CS(=O)(=O)c1ccc2c(c1)SC1=NC(=O)/C(=C/c3ccco3)C(=N)N12,-1.32%
23,Cc1ccccc1C(=O)Nc1nnc(SCC(=O)NCc2ccco2)s1,-1.21%

row,SMILES,inhibition
1,c1ccc2nc3c(nc2c1)c1ccccc1n3CCN1CCOCC1,1.7%
2,Cc1c(NS(=O)(=O)c2ccc(N3CCCCC3)c([N+](=O)[O-])c2)c(=O)n(-c2ccccc2)n1C,-11.9%
3,Cc1cccc(C(=O)NCC(=O)N2CCOCC2)c1,5.14%
4,O=C1c2ccccc2C(Nc2ccc3c(c2)OCCO3)N1Cc1ccco1 (stereo not drawn),-2.9%
5,CCCn1c2ccccc2c2nnc(SCC(=O)OCC)nc21,47.6%
6,O=C(O)c1ccc(N2C(=O)CC(Cc3ccccc3)C2=O)cc1 (stereo not drawn),-0.74%
7,CCOC(=O)c1c(C)n(C)c2ccc(OC)c(NC(=O)c3cccs3)c12,-13%
8,CCOC(=O)CSc1nnc(-c2ccc(S(=O)(=O)NCc3cccs3)cc2)o1,99.6%
9,CCOc1cccc(CN2CCC(n3nccc3NC(=O)C3CC3)CC2)c1O,3.34%
10,CCn1c(=S)sc2c(=O)n(CC(=O)Nc3cccc(Br)c3)c(C)nc21,5.68%
11,Cc1cc(C(=O)N2CCCC(N3CCN(c4cccc(Cl)c4)CC3)C2)no1 (stereo not drawn),4.85%
12,Cc1ccc(C)c(NC(=O)COC(=O)c2ccc(S(=O)(=O)N3CCCCC3)cc2)c1,12.3%
13,Cc1ccc(S(=O)(=O)NNC(=O)c2ccc(O)cc2)cc1,9.92%
14,C/C(=N\NC(=O)c1csc2ccccc12)c1ccc(O)cc1,10%
15,Cc1cccc(Cl)c1NC(=S)NN,25.9%
16,COC(=O)c1cc(OC)c(OC)cc1NC(=O)c1ccc(OC)c(OC)c1,51.9%
17,O=C(CN(Cc1ccc(Cl)cc1)S(=O)(=O)c1ccccc1)NCC1CCCO1 (stereo not drawn),-6.08%
18,CC1(C)Cc2c(cnn2-c2ccccc2)C(NC(=O)CCCN2CCCC2=O)C1 (stereo not drawn),1.71%
19,COc1cc2c(cc1OC)CN(C(=O)Cc1ccccc1)CC2,7.16%
20,CC(C)(C)c1nnc(NC(=O)C2c3ccccc3Oc3ccccc32)s1,37.4%
21,CCN(CC)C(=O)c1ccccc1NC(=O)c1cccc(S(=O)(=O)N(CC)CC)c1,-0.02%
22,Cc1cccc(C)c1OCc1cc(C(=O)N(C)Cc2nc3ccccc3[nH]2)no1,10.9%
23,Cc1ccc(C)c(NC(=O)c2ccc(S(=O)(=O)N(C)CC3CCCO3)cc2)c1 (stereo not drawn),5.09%

row,SMILES,inhibition
1,O=C(NC(=S)N1CCN(c2ccccc2)CC1)c1ccccc1,67.5%
2,Cc1occc1C(=O)NC1CCCN(Cc2ccc(CC(C)C)cc2)C1 (stereo not drawn),17.6%
3,Fc1ccc(-c2csc3ncnc(N4CCc5ccccc5C4)c23)cc1,0.96%
4,CCOc1cc(CNCCN(C)C)c(Cl)cc1OCC(=O)NCCc1ccccc1,1.48%
5,CCCn1cc(S(=O)(=O)c2ccc(C)cc2)c(=O)c2cc(OCC)ccc21,1.77%
6,O=C(CCN1C(=O)C2C3CCC(C3)C2C1=O)OCC(=O)c1ccc(Br)cc1 (stereo not drawn),12%
7,CNC(=O)c1c(NC(=O)C2=COCCO2)sc2c1CCCC2,-0.06%
8,CN1CCc2c(sc(NC(=O)c3ccco3)c2C(N)=O)C1,4.51%
9,C=CCSc1nnc(N2C(=O)C(O)=C(C(=O)c3ccco3)C2c2ccc(F)cc2)s1 (stereo not drawn),4.25%
10,CCCc1nc2c(ccc3ccccc32)cc1CC,-3.6%
11,COc1ccc(-c2csc(NC(C)c3nc4cc(Cl)c(Cl)cc4n3CCCO)n2)cc1 (stereo not drawn),35.7%
12,COC(=O)C(NC(=O)c1ccccc1Cl)(Nc1ncc(S(=O)(=O)c2ccc([N+](=O)[O-])cc2)s1)C(F)(F)F (stereo not drawn),77.9%
13,Cc1ccccc1-c1nc(S(=O)(=O)c2ccc(Cl)cc2)c(NCCN2CCOCC2)o1,-6.48%
14,COCCN1CCN(C(=O)C2CCC(=O)N(CCc3ccc(Cl)cc3)C2)CC1 (stereo not drawn),-4%
15,CCCCCn1c(Br)nc2c1c(=O)n(CC(N)=O)c(=O)n2C,5.21%
16,CC(Cc1cccnc1)NC(=O)c1cc(COc2ccc(F)cc2F)on1 (stereo not drawn),12.6%
17,CC(NS(=O)(=O)c1ccc2c(c1)C(C)(C)C(=O)N2C)c1ccccc1 (stereo not drawn),-6.79%
18,CCCN1CCc2c(sc(NC(=O)CCS(=O)(=O)c3ccccc3)c2C(N)=O)C1,0.57%
19,COc1ccc(NC(=O)C/C(C)=N/NC(=O)c2cnccn2)cc1,5.92%
20,COC(=O)c1ccc(N2CCOCC2)c(NC(=O)c2ccc(Br)o2)c1,0.71%
21,O=[N+]([O-])c1ccc(Sc2cccc3cccnc23)c([N+](=O)[O-])c1,65.5%
22,NC(=O)c1cnn2c1NC(c1ccc(F)cc1)CC2C(F)(F)F (stereo not drawn),-13.1%
